Source: US20220089722A1 (published 2022)

Target: hEGFR-6-his (SinoBiological) (human, UniProt P00533 partial chain)
Assay: ELISA

B1: IgFD-11(anti-CD3/EGFR) (bispecific antibody)
chain 1: EVQLVESGGGLVQPGGSLRLSCAASGFTFNTYAMNWVRQAPGKGLEWVARIRSKYNNYATYYADSVKDRFTISRDDSKNTLYLQMNSLRAEDTAVYYCVRHGNFGNSYVSWFAYWGQGTLVTVSSASTKGPSVFPLAPSSKSTSGGTAALGCLVKDYFPEPVTVSWNSGALTSGVHTFPAVLQSSGLYSLSSVVTVPSSSLGTQTYICNVNHKPSNTKVDKKV[letters of human IgG1 Fc with changes not shown]
chain 2: QAVVTQEPSLTVSPGGTVTLTCRSSTGAVTTSNYANWVQQKPDHLFRGLIGGTNKRAPGTPARFSGSLLGDKAALTISGAQPEDEAEYYCALWYSNLWVFGGGTKLTVLKRTVAAPSVFIFPPSDEQLKSGTASVVCLLNNFYPREAKVQWKVDNALQSGNSQESVTEQDSKDSTYSLSSTLTLSKADYEKHKVYACEVTHQGLSSPVTKSFNRGE[letters of human IgG1 Fc with changes not shown]GGSGGSGGGGSGGGGSDIQMTQSPSSLSASVGDRVTITCQASQDISNYLNWYQQKPGKAPKLLIYDASNLETGVPSRFSGSGSGTDFTFTISSLQPEDIATYFCQHFDHLPLAFGGGTKVEIKGGGGSGGGGSGGGGSQVQLQESGPGLVKPSETLSLTCTVSGGSVSSGDYYWTWIRQSPGKGLEWIGHIYYSGNTNYNPSLKSRLTISIDTSKTQFSLKLSSVTAADTAIYYCVRDRVTGAFDIWGQGTMVTVSS
Kd: 0.158 nM
